The results in this text go back to US8067379B2, “Sulfur compounds as inhibitors of hepatitis C virus NS3 serine protease” (Schering Corporation, priority 2004, dated 2011).

By Ki is commonly meant the equilibrium dissociation constant of an inhibitor or competing ligand from its target.

Where only a bound is given, the exact number is not on record here.

The target of the first test is Recombinant heterodimeric HCV NS3/NS4A protease (strain 1a) (Hepatitis C virus genotype 1a, UniProt P27958). Put plainly: Spectrophotometric assay for HCV serine protease inhibitory activity (chromogenic ester substrates). Format: biochemical. The note with it: Table 3, sulfone compounds, rows without Prep. Ex. number; read-out: Ki* (numeric value, unlabelled structures at end of sulfone table, column without head).
With `C=CCNC(=O)C(=O)C(CC1CC1)NC(=O)[C@@H]1[C@@H]2[C@H](CN1C(=O)[C@@H](NC(=O)NC1(CS(=O)(=O)C(C)(C)C)CCCCC1)C1CCCCC1)C2(Cl)Cl` (stereo partly shown), the inhibitory constant (Ki) was found to be 18 nM.

Turning to `CCC(C)(C)S(=O)(=O)CC1(NC(=O)N[C@H](C(=O)N2C[C@H]3[C@@H]([C@H]2C(=O)NC(CC2CCC2)C(=O)C(=O)NCCC(=O)OC(C)(C)C)C3(C)C)C2(C)CCCCC2)CCCCC1` (stereo partly shown), the Ki worked out at 52 nM.

The same test, now with this note: Table 3, sulfone compounds, rows without Prep. Ex. number; read-out: Ki* range (class symbol, unlabelled structures at end of sulfone table, column without head).
For the compound `C=CCNC(=O)C(=O)C(CC1CC1)NC(=O)[C@@H]1[C@@H]2[C@H](CN1C(=O)[C@@H](NC(=O)NC1(CS(=O)(=O)C(C)(C)C)CCCCC1)C(C)(C)C)[C@@H]2c1ccccc1` (stereo partly shown) [drawing 650], the inhibition constant (Ki) is above 250 nM.

The test is the same for the next values; noted with them: Table 3, sulfone compounds; HCV serine protease; read-out: Ki* range.
With `C=CCNC(=O)C(=O)C(CCC(F)(F)F)NC(=O)[C@@H]1[C@@H]2[C@H](CN1C(=O)[C@@H](NC(=O)NC1(CS(=O)(=O)c3ccccn3)CCCCC1)C(C)(C)C)C2(C)C` (stereo partly shown) [Compound 255], the Ki is below 75 nM. On the same count and under the same terms, under `CC(C)(C)[C@H](NC(=O)NC1(CS(C)(=O)=O)CCCCC1)C(=O)N1C[C@H]2[C@@H]([C@H]1C(=O)NC(CC1CC1)C(=O)C(N)=O)C21CC1` (stereo partly shown) [Compound 207] stands below 75 nM.

As to `CC(C)(C)[C@H](NC(=O)N[C@H](CS(=O)(=O)C(C)(C)C)C(C)(C)C)C(=O)N1C[C@H]2[C@@H]([C@H]1C(=O)NC(CC1CC1)C(=O)C(N)=O)C2(C)C` (stereo partly shown) [Compound 174], the inhibitory constant (Ki) is below 75 nM. On the same count and under the same terms, the result for `CC(C)[C@@H](CS(=O)(=O)Cc1ccccc1)NC(=O)N[C@H](C(=O)N1C[C@H]2[C@@H]([C@H]1C(=O)NC(CC1CC1)C(=O)C(N)=O)C2(C)C)C1CCCCC1` (stereo partly shown) [Compound 159] reads below 75 nM; that for `CC(C)CC(C)(CS(=O)(=O)Cc1ccccc1)NC(=O)N[C@H](C(=O)N1C[C@H]2[C@@H]([C@H]1C(=O)NC(CC1CCC1)C(=O)C(N)=O)C2(C)C)C(C)(C)C` (stereo partly shown) [Compound 196], below 75 nM; that for `CCCNC(=O)C(=O)C(CCC)NC(=O)[C@@H]1[C@@H]2[C@H](CN1C(=O)[C@@H](NC(=O)NC1(CS(=O)(=O)CC)CCCCC1)C(C)(C)C)C2(C)C` (stereo partly shown) [Compound 238], below 75 nM.

Staying with this test, now noted: Table 3A; class symbols; read-out: Ki* Range.
`C=CCNC(=O)C(=O)C(CCC)NC(=O)[C@@H]1[C@@H]2[C@H](CN1C(=O)[C@@H](NC(=O)NC1(CS(=O)(=O)C(C)(C)C)CCCCC1)C1CCC(F)(F)CC1)C2(C)C` (stereo partly shown) [Compound 442]: the Ki is below 75 nM.

Take `C=CCNC(=O)C(=O)[C@H](CCC)NC(=O)[C@@H]1[C@@H]2[C@H](CN1C(=O)[C@@H](NC(=O)NC1([C@H]3CCCS3(=O)=O)CCCCC1)C(C)(C)C)C2(Cl)Cl` [Compound 825]: the Ki is below 75 nM.

For `CCCNC(=O)C(=O)[C@H](CCC1CC1)NC(=O)[C@@H]1[C@@H]2[C@H](CN1C(=O)[C@@H](NC(=O)NC1(CS(=O)(=O)C(C)(C)C)CCCCC1)C(C)(C)C)C2(C)C` [Compound 883-bc], the inhibitory constant (Ki) is below 75 nM. Still for that read-out and setting: the result for `CCCC(NC(=O)[C@@H]1[C@@H]2[C@H](CN1C(=O)[C@@H](NC(=O)NC1(CS(=O)(=O)C(C)(C)C)CCCCC1)C1(C)CCCCC1)C2(C)C)C(=O)C(=O)NC1CCOCC1` (stereo partly shown) [Compound 507] reads above 250 nM. The same measure, in the same setting: under `C=CCNC(=O)C(=O)C(CC1CCC1)NC(=O)[C@@H]1[C@@H]2[C@H](CN1C(=O)[C@@H](NC(=O)NC1(C3CCCS3(=O)=O)CCCCC1)C(C)(C)C)C2(C)C` (stereo partly shown) [Compound 663] stands below 75 nM; under `CCCC[C@H](NC(=O)[C@@H]1[C@@H]2[C@H](CN1C(=O)[C@@H](NC(=O)NC1(C3CCCS3(=O)=O)CCCCC1)C(C)(C)C)C2(C)C)C(=O)C(=O)NC1CC1` (stereo partly shown) [Compound 800], below 75 nM; under `CCCC[C@H](NC(=O)[C@@H]1[C@@H]2[C@H](CN1C(=O)[C@@H](NC(=O)NC1([C@@H]3CCS3(=O)=O)CCCCC1)C(C)(C)C)C2(C)C)C(=O)C(=O)NC1CC1` [Compound 837], below 75 nM.

On to `CC1([C@H](NC(=O)N[C@]2(CS(=O)(=O)C(C)(C)C)C[C@H]3C[C@H]3C2)C(=O)N2C[C@H]3[C@@H]([C@H]2C(=O)NC(CC2CC2)C(=O)C(=O)NC2CC2)C3(C)C)CCCCC1` (stereo partly shown) [Compound 470], for which the Ki was 75 to 250 nM. On to `C=CCNC(=O)C(=O)[C@H](CCC1CC1)NC(=O)[C@@H]1[C@@H]2[C@H](CN1C(=O)[C@@H](NC(=O)NC1([C@H]3CCCS3(=O)=O)CCCCC1)C1CCCCC1)C2(C)C` [Compound 883-y], for which the inhibition constant (Ki) was below 75 nM. The same measure, in the same setting: the result for `C=CCNC(=O)C(=O)C(CCC1CC1)NC(=O)[C@@H]1[C@@H]2[C@H](CN1C(=O)[C@@H](NC(=O)NC1(CS(=O)(=O)C(C)(C)COC)CCCCC1)C1(C)CCCCC1)C2(C)C` (stereo partly shown) [Compound 657] reads below 75 nM; that for `C=CCNC(=O)C(=O)C(CC(C)C)NC(=O)[C@@H]1[C@@H]2[C@H](CN1C(=O)[C@@H](NC(=O)NC1(CS(=O)(=O)C(C)(C)C)CCCCC1)C1CCCCC1)C2(C)C` (stereo partly shown) [Compound 577], above 250 nM.

On to `C=CCNC(=O)C(=O)[C@H](CCCC)NC(=O)[C@@H]1[C@@H]2[C@H](CN1C(=O)[C@@H](NC(=O)NC1(CS(=O)(=O)C3(C)CCOCC3)CCCCC1)C(C)(C)C)C2(C)C` [Compound 823], for which the Ki was below 75 nM. The same measure, in the same setting: the result for `CNC(=O)C(=O)[C@H](CC1CC1)NC(=O)[C@@H]1[C@@H]2[C@H](CN1C(=O)[C@@H](NC(=O)NC1([C@H]3CCCS3(=O)=O)CCCCC1)C(C)(C)C)C2(C)C` [Compound 883-et] reads below 75 nM. The same measure, in the same setting: under `C=CCNC(=O)C(=O)C(CCCC)NC(=O)[C@@H]1[C@@H]2[C@H](CN1C(=O)[C@@H](NC(=O)NC1(C3CCCS3(=O)=O)CCCCC1)C(C)(C)C)C2(C)C` (stereo partly shown) [Compound 629] stands below 75 nM. Same read-out and setting: under `C#CCNC(=O)C(=O)[C@H](CCC1CC1)NC(=O)[C@@H]1[C@@H]2[C@H](CN1C(=O)[C@@H](NC(=O)NC1(CS(=O)(=O)CCC(C)C)CCCCC1)C(C)(C)C)C2(C)C` [Compound 873] stands below 75 nM; under `C=CCNC(=O)C(=O)[C@H](CC1CC1)NC(=O)[C@@H]1[C@@H]2[C@H](CN1C(=O)[C@@H](NC(=O)NC1(C3CCCS3(=O)=O)CCCCC1)C1(C)CCCCC1)C2(C)C` (stereo partly shown) [Compound 690], below 75 nM; under `CCCC[C@H](NC(=O)[C@@H]1[C@@H]2[C@H](CN1C(=O)[C@@H](NC(=O)NC1(CS(=O)(=O)C(C)(C)COC)CCCCC1)C1(C)CCCCC1)C2(C)C)C(=O)C(=O)NC1CC1` [Compound 807], below 75 nM. Turning to `CCCNC(=O)C(=O)C(CCC)NC(=O)[C@@H]1[C@@H]2[C@H](CN1C(=O)[C@@H](NC(=O)NC1(C3CCCS3(=O)=O)CCCCC1)C(C)(C)C)C2(C)C` (stereo partly shown) [Compound 632], the inhibitory constant (Ki) was below 75 nM. On the same count and under the same terms, the result for `C=CCNC(=O)C(=O)C(CC1CC1)NC(=O)[C@@H]1[C@@H]2[C@H](CN1C(=O)[C@@H](NC(=O)NC1(CS(=O)(=O)C(C)(C)C)CC3CCC1C3)C(C)(C)C)C2(C)C` (stereo partly shown) [Compound 592] reads below 75 nM. `CNC(=O)C(=O)[C@H](CCC1CC1)NC(=O)[C@@H]1[C@@H]2[C@H](CN1C(=O)[C@@H](NC(=O)NC1(CS(=O)(=O)C(C)(C)C)CCCCC1)C1CCCCC1)C2(C)C` [Compound 883-bu]: the inhibition constant (Ki) was below 75 nM. Still for that read-out and setting: the result for `C=CCNC(=O)C(=O)C(CCCC)NC(=O)[C@@H]1[C@@H]2[C@H](CN1C(=O)[C@@H](NC(=O)NC1(CS(=O)(=O)CC(F)(F)F)CCCCC1)C(C)(C)C)C2(C)C` (stereo partly shown) [Compound 511] reads below 75 nM. Same read-out and setting: the result for `C=CCNC(=O)C(=O)C(CCC1CC1)NC(=O)[C@@H]1[C@@H]2[C@H](CN1C(=O)[C@@H](NC(=O)NC1(CS(=O)(=O)C(C)(C)COC3CCCCO3)CCCCC1)C(C)(C)C)C2(C)C` (stereo partly shown) [Compound 705] reads below 75 nM.
